{
  "source": "PubChem BioAssay AID624296",
  "about": "(National Center for Advancing Translational Sciences (NCATS), 2012)",
  "note": "The whole screen tested about 350,000 compounds, of which about 9,900 (2.8%) were called active. Inconclusive means that the source gave no clear call. Such entries were picked first, then a sample of the others. Calls come from the whole dose curve; as a rule, active = well fitted activation curve with a large enough effect; inconclusive = small, poorly fitted or top-dose-only effect; inactive = no such curve, though single readings can be large or run the other way. No potency is given beside an inconclusive call; the fits are too rough. Potency is the fitted concentration of half-maximal effect; tags give direction and shape of the fitted curve.",
  "data": [
    {"test": "A quantitative high throughput screen for small molecules that induce DNA re-replication in MCF 10a normal breast cells; note: nearly all actives have a fitted effect of over 50% in size; for activity, positive = re-replication: % of control where 0% means no effect.", "conditions": "MCF 10A DNA re-replication, Hoechst nuclear intensity, 48 h; activity, positive = re-replication: at 46.1 µM (top of the series)", "values": [
      {"smiles": "COc1cccc(O)c1CN1CCC(C(=O)Nc2ccc(-c3cccc(C)c3)cc2)CC1", "Potency": "inconclusive [activator, single point]"},
      {"smiles": "O=C(NCc1ccco1)C1CCN(S(=O)(=O)N2CCC3(CC2)OCCO3)CC1", "Potency": "inconclusive [activator, single point]"},
      {"smiles": "CCOC(=O)c1sc2nc(NC(=O)COc3ccccc3)sc2c1C", "Potency": "inconclusive [activator, single point]"},
      {"smiles": "CCCN1CCN(CCCNC(=O)c2ccccc2NC(=O)C2=C(C)OCCS2)CC1", "activity, positive = re-replication": "inactive: 17.4%"},
      {"smiles": "Cc1nnc(-c2ccccc2)nc1N(C)C", "activity, positive = re-replication": "inactive: -0.102%"},
      {"smiles": "COCC(=O)Nc1c(C(=O)Nc2ccc3c(c2)OCCO3)oc2ccccc12", "Potency": "inconclusive [activator, single point]"},
      {"smiles": "COC(=O)c1ccc(COc2ccccc2OC)o1", "activity, positive = re-replication": "inactive: -6.76%"},
      {"smiles": "Cc1nc(NCCc2ccccc2)sc1C(=O)N(C)C", "activity, positive = re-replication": "inactive: -5.15%"},
      {"smiles": "CCc1ccc(CN(C)CC(O)COc2cccc3ccccc23)cc1", "note": "(centres undefined)", "Potency": "inconclusive [activator, single point]"},
      {"smiles": "CC(OC(=O)/C=C/c1ccc2ccccc2n1)C(=O)Nc1ccc(S(N)(=O)=O)cc1", "note": "(centres undefined)", "Potency": "inconclusive [activator, single point]"},
      {"smiles": "CC(CS(=O)(=O)c1ccc2c(c1)NC(=O)CS2)C(=O)N1CCN(c2cccc(Cl)c2)CC1", "note": "(centres undefined)", "activity, positive = re-replication": "inactive: 15.7%"},
      {"smiles": "Oc1ccc(/C=N/NC(=S)N/N=C/c2ccc(O)cc2)cc1", "Potency": "inconclusive [activator, single point]"},
      {"smiles": "Nc1c(C(=O)c2ccc(Cl)cc2)sc2c1c(=O)[nH]c(=O)n2-c1ccccc1", "Potency": "inconclusive [activator, single point]"},
      {"smiles": "COc1cc(CC(=O)OCC(=O)N(C)C2CCCCC2)cc(OC)c1OC", "activity, positive = re-replication": "inactive: -4.92%"},
      {"smiles": "Cc1c(NC(=S)NC(=O)c2ccc(-c3ccc(Cl)cc3)o2)cccc1C(=O)O", "Potency": "inconclusive [activator, partial curve, poor fit]"},
      {"smiles": "O=C(CN1CCOCC1)Nc1ncc(Cc2cccc3ccccc23)s1", "Potency": "inconclusive [activator, partial curve, poor fit]"},
      {"smiles": "COc1ccc(C2c3sc(=O)[nH]c3SC3C4CCC(C4)C23)cc1OC", "note": "(centres undefined)", "Potency": "inconclusive [activator, partial curve, poor fit]"},
      {"smiles": "COc1cc(C(=O)NNC(=O)c2ccc(F)cc2)ccc1OCC(=O)N1CCOCC1", "activity, positive = re-replication": "inactive: -1.91%"},
      {"smiles": "CCOC(=O)C1(CCOc2ccccc2)CCN(Cc2ccc(C#CCCO)cc2)CC1", "Potency": "inconclusive [activator, partial curve, poor fit]"},
      {"smiles": "COc1cc(/C=C/C(=O)NC(C)C2CC3CCC2C3)cc(OC)c1OC", "note": "(centres undefined)", "Potency": "inconclusive [activator, single point]"},
      {"smiles": "O=C(c1ccccc1)C(CN1CCCCC1)c1ccccc1", "note": "(centres undefined)", "Potency": "active: 4.11 µM"},
      {"smiles": "O=C(c1cc(-c2cccc(O)c2)on1)N1CCCC1", "activity, positive = re-replication": "inactive: -4.03%"},
      {"smiles": "O=C(CN1c2cccc3cccc(c23)S1(=O)=O)Nc1ccc(S(=O)(=O)N2CCOCC2)cc1", "Potency": "inconclusive [activator, partial curve, poor fit]"},
      {"smiles": "Cc1ccc(/C=N/NC(=O)CSc2nc3ccccc3n2Cc2ccc(Cl)cc2)o1", "Potency": "inconclusive [activator, single point]"},
      {"smiles": "CCCc1nnc(NC(=O)c2nc(S(=O)(=O)Cc3cccc(C)c3)ncc2Cl)s1", "Potency": "inconclusive [activator, partial curve, poor fit]"},
      {"smiles": "CSCCC(NC(=O)c1ccc([N+](=O)[O-])cc1Cl)C(=O)OCC(=O)NCCCc1ccccc1", "note": "(centres undefined)", "Potency": "inconclusive [activator, single point]"},
      {"smiles": "Cc1ccc(C)c(N(C(=O)c2snc(C(N)=O)c2N)C(C(=O)NCC2CCCO2)c2cccs2)c1", "note": "(centres undefined)", "Potency": "inconclusive [activator, single point]"},
      {"smiles": "CCCCn1c(-c2csc(CCC)c2)n[nH]c1=S", "activity, positive = re-replication": "inactive: -31.8%"},
      {"smiles": "CC(=O)Nc1ccc(/C(C)=N/Nc2nc(Nc3ccccc3)nc(N3CCOCC3)n2)cc1", "activity, positive = re-replication": "inactive: 12.1%"},
      {"smiles": "CCOC(=O)C(NC(=O)c1ccc(OC)cc1)(OCC1(CC)COC1)C(F)(F)F", "note": "(centres undefined)", "activity, positive = re-replication": "inactive: -1.78%"},
      {"smiles": "Oc1ccc(N=Cc2sc3ccccc3c2Cl)cc1", "Potency": "inconclusive [activator, single point]"},
      {"smiles": "CC(C)CNC(=O)c1nn(Cc2ccccc2)c(=O)c2ccccc12", "Potency": "inconclusive [activator, single point]"},
      {"smiles": "COc1cc(C(=O)OCCNC(=O)c2ccccc2)cc(OC)c1OC", "Potency": "inconclusive [activator, single point]"},
      {"smiles": "CN(C)C(=O)CN(c1ccc(F)c(Cl)c1)S(C)(=O)=O", "Potency": "inconclusive [activator, single point]"},
      {"smiles": "CC(C)(CO)NCc1ccc(Br)cc1", "activity, positive = re-replication": "inactive: 0.115% [at 9.22 µM]"},
      {"smiles": "CS(=O)(=O)N(Cc1ccccc1)c1ccc(C(=O)Nc2ccccc2C(=O)O)cc1", "activity, positive = re-replication": "inactive: -5.37%"},
      {"smiles": "COc1ccc(CN(C(=O)c2nsc(Cl)c2Cl)C(C(=O)NC2CCCC2)c2ccc(OC)cc2)cc1", "note": "(centres undefined)", "activity, positive = re-replication": "inactive: -0.0894%"},
      {"smiles": "O=C(Nc1ccc(Cl)cc1)OCCn1nnnc1C(c1ccccc1)N1CCOCC1", "note": "(centres undefined)", "Potency": "inconclusive [activator, single point]"},
      {"smiles": "COc1ccc(Oc2ccc(/C=C/C(=O)c3cccc(OC)c3)cc2[N+](=O)[O-])cc1", "Potency": "active: 6.51 µM"},
      {"smiles": "CC(=O)Nc1cccc(NC(=O)COC(=O)CO/N=C(\\C)c2ccc3c(c2)OCO3)c1", "Potency": "inconclusive [activator, single point]"},
      {"smiles": "CN1CCN(S(=O)(=O)c2ccc(NC(=O)c3ccc(Br)s3)cc2)CC1", "Potency": "active: 14.6 µM"},
      {"smiles": "N=c1c(C(=O)NCC2CCCO2)cc2c(=O)n3ccccc3nc2n1Cc1ccc(Cl)cc1", "note": "(centres undefined)", "activity, positive = re-replication": "inconclusive: 837% [activator]"},
      {"smiles": "O=C(Cn1cnc2cc([N+](=O)[O-])ccc2c1=O)Nc1cccc(S(=O)(=O)N2CCOCC2)c1", "Potency": "inconclusive [activator, single point]"},
      {"smiles": "Oc1ccc(/C=N/NC(=S)N2CCOCC2)cc1", "Potency": "inconclusive [activator, single point]"}
    ]}
  ]
}
